First the molecules themselves.
B1: GPR68, Q15743 (parent)
chain: MGNITADNSSMSCTIDHTIHQTLAPVVYVTVLVVGFPANCLSLYFGYLQIKARNELGVYLCNLTVADLFYICSLPFWLQYVLQHDNWSHGDLSCQVCGILLYENIYISVGFLCCISVDRYLAVAHPFRFHQFRTLKAAVGVSVVIWAKELLTSIYFLMHEEVIEDENQHRVCFEHYPIQAWQRAINYYRFLVGFLFPICLLLASYQGILRAVRRSHGTQKSRKDQIQRLVLSTVVIFLACFLPYHVLLLVRSVWEASCDFAKGVFNAYHFSLLLTSFNCVADPVLYCFVSETTHRDLARLRGACLAFLTCSRTGRAREAYPLGAPEASGKSGAQGEEPELLTKLHPAFQTPNSPGSGGFPTGRLA

The least precise scores are not listed. Not listed are two conditions whose scores span a narrow range. Read del as a deletion of the residues named and ins as an insertion between two positions. For some of these results: The data file names ogerin without a concentration.

Variants of B1 are the subject of data set [1]. As to the kind of experiment: cAMP reporter score (Enrich2 score, wild type = 0); higher = more signal; HEK293T, FACS bins.
Data set [2] covers variants of B1. In words: surface expression score (Enrich2 score, wild type = 0); higher = more signal; HEK293T, FACS bins.

Take L135R: the cAMP reporter score in data set [1] (pH 5.5) is -1.34; in data set [1] (pH 6), -1.19; in data set [1] (pH 6, modulator: ogerin), 0.191; in data set [1] (pH 6.5, modulator: ogerin), -1.73. In data set [2], the surface expression score amounted to 0.001.
In the case of L135W, the cAMP reporter score was 0.04 in data set [1] (pH 5.5); -0.72 in data set [1] (pH 6); -0.027 in data set [1] (pH 6, modulator: ogerin); -0.494 in data set [1] (pH 6.5, modulator: ogerin).
As to L135P, the cAMP reporter score in data set [1] (pH 5.5) was 0.526; in data set [1] (pH 6) it was -0.066; in data set [1] (pH 6.5, modulator: ogerin), 0.049. In data set [2], the surface expression score is -1.22.
As to L135T, the cAMP reporter score in data set [1] (pH 5.5) came to 1.4; in data set [1] (pH 6), 1.64; in data set [1] (pH 6, modulator: ogerin), 0.69; in data set [1] (pH 6.5, modulator: ogerin), 0.49. Besides, the surface expression score in data set [2] is -0.447.
Regarding L135S, the cAMP reporter score is -0.713 in data set [1] (pH 5.5); -1.42 in data set [1] (pH 6); -0.915 in data set [1] (pH 6.5, modulator: ogerin). In addition, the surface expression score in data set [2] is -1.68.
Turning to S142_V143insGSG, the cAMP reporter score in data set [1] (pH 5.5) was -1.26; in data set [1] (pH 6) it was 0.979; in data set [1] (pH 6, modulator: ogerin) it was -0.627; in data set [1] (pH 6.5, modulator: ogerin), -0.722.
As to A137Y, the cAMP reporter score in data set [1] (pH 5.5) was -1.82; in data set [1] (pH 6) it was -1.71; in data set [1] (pH 6.5, modulator: ogerin), -0.929. Also, the surface expression score in data set [2] is -2.74.
On to A137W, for which the cAMP reporter score in data set [1] (pH 5.5) came to 1.35; in data set [1] (pH 6), 0.968; in data set [1] (pH 6, modulator: ogerin), 1.25; in data set [1] (pH 6.5, modulator: ogerin) it was 0.779. For the same variant, the surface expression score in data set [2] was -0.417.
Regarding A137R, the cAMP reporter score in data set [1] (pH 5.5) was -0.154; in data set [1] (pH 6, modulator: ogerin) it was -0.803; in data set [1] (pH 6.5, modulator: ogerin) it was -0.192.
In the case of A137S, the cAMP reporter score in data set [1] (pH 5.5) is -0.016; in data set [1] (pH 6, modulator: ogerin), -0.639. Besides, the surface expression score in data set [2] was -0.392.
For A137F, the cAMP reporter score in data set [1] (pH 5.5) was 0.744; in data set [1] (pH 6, modulator: ogerin), -0.794; in data set [1] (pH 6.5, modulator: ogerin), -0.442.
Regarding A137N, the cAMP reporter score was -0.888 in data set [1] (pH 5.5); -0.851 in data set [1] (pH 6); -1.36 in data set [1] (pH 6, modulator: ogerin); -1.54 in data set [1] (pH 6.5, modulator: ogerin). Further, the surface expression score in data set [2] was -0.786.
Regarding A137D, the cAMP reporter score is -1.38 in data set [1] (pH 5.5); -0.483 in data set [1] (pH 6); -1.9 in data set [1] (pH 6, modulator: ogerin); -1.5 in data set [1] (pH 6.5, modulator: ogerin). Besides, in data set [2], the surface expression score is -1.83.
For A137P, in that order: -0.645, -0.782, -0.42, -1.26 and -2.39.
For the variant A137I, the cAMP reporter score is -0.165 in data set [1] (pH 5.5); -0.511 in data set [1] (pH 6); 0.051 in data set [1] (pH 6, modulator: ogerin); -0.425 in data set [1] (pH 6.5, modulator: ogerin). For the same variant, the surface expression score in data set [2] is -0.461.
With A137V, the cAMP reporter score turned out to be 0.622 in data set [1] (pH 5.5); 3.92 in data set [1] (pH 6); 3.57 in data set [1] (pH 6.5, modulator: ogerin). Also, the surface expression score in data set [2] is -0.067.
For A137H, the cAMP reporter score was 0.416 in data set [1] (pH 5.5) and -1.06 in data set [1] (pH 6.5, modulator: ogerin).
With A137C, the cAMP reporter score in data set [1] (pH 5.5) worked out at 0.177; in data set [1] (pH 6) it was 1.17; in data set [1] (pH 6, modulator: ogerin) it was 1.88; in data set [1] (pH 6.5, modulator: ogerin) it was 0.936. Besides, the surface expression score in data set [2] was determined as 0.695.
The matching figures for A137G: 0.803, -0.013, -0.082, -0.758 and -0.585.
In the case of A137E, the cAMP reporter score in data set [1] (pH 5.5) is -0.838; in data set [1] (pH 6, modulator: ogerin) it was -1.34; in data set [1] (pH 6.5, modulator: ogerin), -2.71.
Turning to A137K, the cAMP reporter score in data set [1] (pH 5.5) is -0.325; in data set [1] (pH 6, modulator: ogerin), -0.013; in data set [1] (pH 6.5, modulator: ogerin), -0.521. For the same variant, the surface expression score in data set [2] is -2.51.
For A137T, in that order: -1.3, -0.31, 1.58 and -0.37.
As for K136_A137insGS, the cAMP reporter score is -1.48 in data set [1] (pH 5.5); -1.78 in data set [1] (pH 6); -2.57 in data set [1] (pH 6, modulator: ogerin); -0.85 in data set [1] (pH 6.5, modulator: ogerin). Besides, the surface expression score in data set [2] was -2.33.
In the case of W146_A147del, the cAMP reporter score in data set [1] (pH 5.5) was -1.15; in data set [1] (pH 6), -0.303; in data set [1] (pH 6, modulator: ogerin) it was -1.41; in data set [1] (pH 6.5, modulator: ogerin), -0.555. Moreover, the surface expression score in data set [2] is -1.93.
For E149_L150del, in that order: -1.98, -0.912, -2.35, -0.75 and -2.46.
For I145_W146del, in that order: -1.52, -0.427, -1.15, -1.35 and -2.11.
The matching figures for L151_T152del: -1.2, -1.51, -0.997, -1.37 and -1.85.
For the variant L151_T152insG, the cAMP reporter score in data set [1] (pH 5.5) is -1.85; in data set [1] (pH 6), -2.31; in data set [1] (pH 6, modulator: ogerin), -1.14; in data set [1] (pH 6.5, modulator: ogerin), -1.74. Besides, the surface expression score in data set [2] is -0.426.
As to L150_L151insGSG, the cAMP reporter score in data set [1] (pH 5.5) was -2.34; in data set [1] (pH 6), -0.841; in data set [1] (pH 6.5, modulator: ogerin), -1.44. Further, the surface expression score in data set [2] is -1.79.
Turning to I145_W146insGS, the cAMP reporter score in data set [1] (pH 5.5) was -0.956; in data set [1] (pH 6), -0.6; in data set [1] (pH 6, modulator: ogerin), -1.8; in data set [1] (pH 6.5, modulator: ogerin), -0.923. Besides, the surface expression score in data set [2] is -1.8.
In the case of K148_E149insG, the cAMP reporter score is -1.49 in data set [1] (pH 5.5); -1.07 in data set [1] (pH 6); -1.81 in data set [1] (pH 6, modulator: ogerin); -1.29 in data set [1] (pH 6.5, modulator: ogerin). For the same variant, the surface expression score in data set [2] is -2.15.
The matching figures for G140Y: -0.295, -0.069, -0.169, -0.163 and -0.168.
Regarding G140F, the cAMP reporter score in data set [1] (pH 5.5) was determined as 0.971; in data set [1] (pH 6, modulator: ogerin), 0.507; in data set [1] (pH 6.5, modulator: ogerin), 1.6. The surface expression score in data set [2] came to 0.175.
For G140D, in that order: -0.856, -1.45, -0.573 and -2.04.

(Values after the GPR68 mutational scans of Howard et al. (2025).)
